# The other results are listed elsewhere or left out.
# Experiments:
# Assay in all cases: glycan array binding signal (z-score within array); higher = stronger binding
# Conditions in all cases: glycan notation: IUPAC condensed, linker removed
# [1] = molecular target: Fuc(a1-2)Gal
# In short: (§1)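 Glycan array data were curated from 3228 arrays in the Consortium for Functional Glycomics database and kept only where the protein sequence was available. Glycan names were converted to IUPAC-condensed notation, and columns mapping to the same glycan were averaged. The binding signal is a within-array Z-score, averaged across arrays of the same protein sequence at different concentrations or buffers and across linkers. Negative Z-scores can be read as non-binding.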
# [2] = molecular target: Fuc(a1-2)Gal(b1-3)GalNAc
# In short: as §1
# [3] = molecular target: Fuc(a1-2)Gal(b1-3)GalNAc(b1-3)Gal
# In short: as §1
# [4] = molecular target: Fuc(a1-2)Gal(b1-3)GalNAc(b1-3)Gal(a1-4)Gal(b1-4)Glc
# In short: as §1
# [5] = molecular target: Fuc(a1-2)Gal(b1-3)GalNAc(b1-4)[Neu5Ac(a2-3)]Gal(b1-4)Glc
# In short: as §1
# [6] = molecular target: Fuc(a1-2)Gal(b1-3)GlcNAc
# In short: as §1
# [7] = molecular target: Fuc(a1-2)Gal(b1-3)GlcNAc(b1-3)Gal(b1-4)Glc
# In short: as §1
# [8] = molecular target: Fuc(a1-2)Gal(b1-3)[Fuc(a1-4)]GlcNAc
# In short: as §1
# [9] = molecular target: Fuc(a1-2)Gal(b1-4)Glc
# In short: as §1
# [10] = molecular target: Fuc(a1-2)Gal(b1-4)Glc6S
# In short: as §1
# [11] = molecular target: Fuc(a1-2)Gal(b1-4)GlcNAc
# In short: as §1
# [12] = molecular target: Fuc(a1-2)Gal(b1-4)GlcNAc(b1-3)Gal(b1-4)GlcNAc
# In short: as §1
# [13] = molecular target: Fuc(a1-2)Gal(b1-4)GlcNAc(b1-3)Gal(b1-4)GlcNAc(b1-3)Gal(b1-4)GlcNAc
# In short: as §1
# [14] = molecular target: Fuc(a1-2)Gal(b1-4)GlcNAc6S
# In short: as §1
# [15] = molecular target: Fuc(a1-2)Gal(b1-4)[Fuc(a1-3)]GlcNAc
# In short: as §1
# [16] = molecular target: Fuc(a1-2)Gal(b1-4)[Fuc(a1-3)]GlcNAc(b1-3)Gal(b1-4)[Fuc(a1-3)]GlcNAc
# In short: as §1
# [17] = molecular target: Fuc(a1-2)Gal(b1-4)[Fuc(a1-3)]GlcNAc(b1-3)Gal(b1-4)[Fuc(a1-3)]GlcNAc(b1-3)Gal(b1-4)[Fuc(a1-3)]GlcNAc
# In short: as §1
# [18] = molecular target: Fuc(a1-2)Gal6S(b1-4)Glc
# In short: as §1
# [19] = molecular target: Fuc(a1-2)Gal6S(b1-4)Glc6S
# In short: as §1
# [20] = molecular target: Fuc(a1-2)Gal6S(b1-4)GlcNAc
# In short: as §1
# [21] = molecular target: Fuc(a1-2)[Gal(a1-3)]Gal
# In short: as §1
# [22] = molecular target: Fuc(a1-2)[Gal(a1-3)]Gal(b1-3)GlcNAc
# In short: as §1
# [23] = molecular target: Fuc(a1-2)[Gal(a1-3)]Gal(b1-4)Glc
# In short: as §1
# [24] = molecular target: Fuc(a1-2)[Gal(a1-3)]Gal(b1-4)GlcNAc
# In short: as §1
# [25] = molecular target: Fuc(a1-2)[Gal(a1-3)]Gal(b1-4)[Fuc(a1-3)]GlcNAc
# In short: as §1
# [26] = molecular target: Fuc(a1-2)[Gal(a1-4)]Gal(b1-4)GlcNAc
# In short: as §1
# [27] = molecular target: Fuc(a1-2)[GalNAc(a1-3)]Gal
# In short: as §1
# [28] = molecular target: Fuc(a1-2)[GalNAc(a1-3)]Gal(b1-3)GlcNAc
# In short: as §1
# [29] = molecular target: Fuc(a1-2)[GalNAc(a1-3)]Gal(b1-4)Glc
# In short: as §1
# [30] = molecular target: Fuc(a1-2)[GalNAc(a1-3)]Gal(b1-4)GlcNAc
# In short: as §1
# [31] = molecular target: Fuc(a1-2)[GalNAc(a1-3)]Gal(b1-4)[Fuc(a1-3)]GlcNAc
# In short: as §1
# [32] = molecular target: Fuc(a1-2)[GalNAc(a1-4)]Gal(b1-4)GlcNAc
# In short: as §1
# [33] = molecular target: Fuc(a1-2)[GalNAc(b1-3)]Gal
# In short: as §1
# [34] = molecular target: Fuc(a1-3)GlcNAc
# In short: as §1
# [35] = molecular target: Fuc(a1-3)[Gal(b1-4)]Glc6S
# In short: as §1
# [36] = molecular target: Fuc(a1-3)[Gal(b1-4)]GlcNAc
# In short: as §1
# [37] = molecular target: Fuc(a1-3)[Gal(b1-4)]GlcNAc(b1-2)Man(a1-3)[Fuc(a1-3)[Gal(b1-4)]GlcNAc(b1-2)Man(a1-6)]Man(b1-4)GlcNAc(b1-4)GlcNAc
# In short: as §1
# [38] = molecular target: Fuc(a1-3)[Gal(b1-4)]GlcNAc(b1-2)Man(a1-6)[Gal(b1-4)GlcNAc(b1-2)Man(a1-3)]Man(b1-4)GlcNAc(b1-4)GlcNAc
# In short: as §1
# [39] = molecular target: Fuc(a1-3)[Gal(b1-4)]GlcNAc(b1-3)Gal(b1-3)[Fuc(a1-4)]GlcNAc
# In short: as §1
# [40] = molecular target: Fuc(a1-3)[Gal(b1-4)]GlcNAc(b1-4)Gal(b1-4)[Fuc(a1-3)]GlcNAc
# In short: as §1
# [41] = molecular target: Fuc(a1-3)[Gal(b1-4)]GlcNAc(b1-4)Gal(b1-4)[Fuc(a1-3)]GlcNAc(b1-4)Gal(b1-4)[Fuc(a1-3)]GlcNAc
# In short: as §1
# [42] = molecular target: Fuc(a1-3)[Gal(b1-4)]GlcNAc6S
# In short: as §1
# [43] = molecular target: Fuc(a1-3)[Gal3S(b1-4)]Glc6S
# In short: as §1
# [44] = molecular target: Fuc(a1-3)[Gal3S(b1-4)]GlcNAc
# In short: as §1
# [45] = molecular target: Fuc(a1-3)[Gal3S(b1-4)]GlcNAc6S
# In short: as §1
# [46] = molecular target: Fuc(a1-3)[GalNAc(b1-4)]GlcNAc
# In short: as §1
# [47] = molecular target: Fuc(a1-4)GlcNAc
# In short: as §1
# [48] = molecular target: Fuc(b1-3)GlcNAc
# In short: as §1
# [49] = molecular target: Gal(a1-2)Gal
# In short: as §1
# [50] = molecular target: Gal(a1-3)Gal
# In short: as §1
# [51] = molecular target: Gal(a1-3)Gal(b1-3)GlcNAc
# In short: as §1
# [52] = molecular target: Gal(a1-3)Gal(b1-4)Glc
# In short: as §1
# [53] = molecular target: Gal(a1-3)Gal(b1-4)GlcNAc
# In short: as §1
# [54] = molecular target: Gal(a1-3)Gal(b1-4)[Fuc(a1-3)]GlcNAc
# In short: as §1
# [55] = molecular target: Gal(a1-3)GalNAc
# In short: as §1
# [56] = molecular target: Gal(a1-3)[Gal(a1-4)]Gal(b1-4)GlcNAc
# In short: as §1
# [57] = molecular target: Gal(a1-4)Gal(b1-4)Glc
# In short: as §1
# [58] = molecular target: Gal(a1-4)Gal(b1-4)GlcNAc
# In short: as §1
# [59] = molecular target: Gal(a1-4)GlcNAc
# In short: as §1
# [60] = molecular target: Gal(a1-6)Glc
# In short: as §1
binder,measurement,setting,value
Surfactant Protein D (rat); Neck + Carbohydrate Recognition Domain (NCRD) (Rattus norvegicus) (protein) MLLFLLSALVLLTQPLGYLEAEMKTYSHRTMPSACTLVMCSSVESGLPGRDGRDGREGPRGEKGDPGLPGAAGQAGMPGQAGPVGPKGDNGSVGEPGPKGDTGPSGPPGPPGVPGPAGREGALGKQGNIGPQGKPGPKGEAGPKGEVGAPGMQGSAGARGAGPKGERGVPGERGVPGNTGAAGSAGAMGPQGSPGARGPPGLKGDKGIPGDKGAKGESGLPDVASLRQQVEALQGQVQHLQAAFSQYKKVELFPNGQSVGEKIFKTAGFVKPFTEAQLLCTQAGGQLASPRSAAENAALQQLVVAKNEAAFLSMTDSKTEGKFTYPTGESLVYSNWAPGEPNDDGGSEDCVEIFTNGKWNDRACGEKRLVVCEF,glycan array binding signal (z-score),[1],-0.204
same,glycan array binding signal (z-score),[2],-0.177
same,glycan array binding signal (z-score),[3],-0.118
same,glycan array binding signal (z-score),[4],-0.181
same,glycan array binding signal (z-score),[5],-0.142
same,glycan array binding signal (z-score),[6],-0.13
same,glycan array binding signal (z-score),[7],-0.215
same,glycan array binding signal (z-score),[8],-0.177
same,glycan array binding signal (z-score),[9],-0.073
same,glycan array binding signal (z-score),[10],-0.204
same,glycan array binding signal (z-score),[11],-0.173
same,glycan array binding signal (z-score),[12],-0.183
same,glycan array binding signal (z-score),[13],-0.149
same,glycan array binding signal (z-score),[14],0.018
same,glycan array binding signal (z-score),[15],-0.203
same,glycan array binding signal (z-score),[16],-0.151
same,glycan array binding signal (z-score),[17],-0.129
same,glycan array binding signal (z-score),[18],-0.243
same,glycan array binding signal (z-score),[19],-0.148
same,glycan array binding signal (z-score),[20],-0.067
same,glycan array binding signal (z-score),[21],-0.22
same,glycan array binding signal (z-score),[22],-0.19
same,glycan array binding signal (z-score),[23],-0.234
same,glycan array binding signal (z-score),[24],-0.206
same,glycan array binding signal (z-score),[25],-0.205
same,glycan array binding signal (z-score),[26],-0.095
same,glycan array binding signal (z-score),[27],-0.221
same,glycan array binding signal (z-score),[28],-0.109
same,glycan array binding signal (z-score),[29],-0.212
same,glycan array binding signal (z-score),[30],-0.184
same,glycan array binding signal (z-score),[31],-0.192
same,glycan array binding signal (z-score),[32],-0.26
same,glycan array binding signal (z-score),[33],-0.245
same,glycan array binding signal (z-score),[34],-0.127
same,glycan array binding signal (z-score),[35],-0.019
same,glycan array binding signal (z-score),[36],-0.113
same,glycan array binding signal (z-score),[37],-0.166
same,glycan array binding signal (z-score),[38],-0.165
same,glycan array binding signal (z-score),[39],-0.187
same,glycan array binding signal (z-score),[40],-0.139
same,glycan array binding signal (z-score),[41],-0.179
same,glycan array binding signal (z-score),[42],0.145
same,glycan array binding signal (z-score),[43],-0.006
same,glycan array binding signal (z-score),[44],0.026
same,glycan array binding signal (z-score),[45],0.166
same,glycan array binding signal (z-score),[46],-0.189
same,glycan array binding signal (z-score),[47],-0.145
same,glycan array binding signal (z-score),[48],-0.192
same,glycan array binding signal (z-score),[49],-0.198
same,glycan array binding signal (z-score),[50],-0.174
same,glycan array binding signal (z-score),[51],-0.182
same,glycan array binding signal (z-score),[52],-0.114
same,glycan array binding signal (z-score),[53],-0.18
same,glycan array binding signal (z-score),[54],-0.247
same,glycan array binding signal (z-score),[55],-0.226
same,glycan array binding signal (z-score),[56],-0.254
same,glycan array binding signal (z-score),[57],-0.276
same,glycan array binding signal (z-score),[58],-0.207
same,glycan array binding signal (z-score),[59],-0.242
same,glycan array binding signal (z-score),[60],-0.216
